Assay results taken from publication PMC12136788.
This is one part of the list.

T1: UNK ZnF1-3 (human, UniProt Q9C0B0 31-174)
T1 sequence: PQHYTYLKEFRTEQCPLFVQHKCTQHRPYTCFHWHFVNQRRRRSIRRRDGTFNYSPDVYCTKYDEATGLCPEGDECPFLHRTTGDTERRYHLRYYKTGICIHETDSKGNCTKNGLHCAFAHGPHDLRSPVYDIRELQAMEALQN

B1: chr11:70266916:70266917:+_ENSMUSG00000018923_ENSMUST00000019067|mus_mus|FALSE|FALSE (ssRNA)
RNA: GGGAGUUCUACAGUCCGACGAUCAGGAAGUGGGUUGGGAGUUGACCUCUGACCUCUGUCUGAUCUUGCAUAGUGGAAAACAGGGCCGUCUUGCUGGAAGAGUCAGAAGAGAUGUGUGUACACUGGGGCUUUGGAUUCUUCAGUCAACAGAGGAUUGAGCAUCA
B2: 60642699_60642819_4119_CDS_ENSG00000081913_ENST00000262719|human|control|control (ssRNA)
RNA: GGGAGUUCUACAGUCCGACGAUCCUCUUCUUCACAGCUCAUGAUGUAAGAUCUGGACAGAGGCAGCGGCUUUCCAUUUCGACAGAGAACUGUUUGGCACUUGCCCACAUUAGCAGAGGUCAAGGUGAAGGAUCCUCCUGGAUCCAACAGAGGAUUGAGCAUCA
B3: 89908954_89956294_234_3pUTR_ENSMUSG00000002489_ENSMUST00000163370|mouse|control|control (ssRNA)
RNA: GGGAGUUCUACAGUCCGACGAUCAGAAACCCCAGGCCAAACAGAAGAGCCUUGGUCAAGAUCUCCAAAGGUGCCAUCUGAAGGCGCUGCUCAAGUCCUGAGUGAGGGACUAGAAUUGUCUCCGGGACUGUCCCCUCCCUUCCUCAACAGAGGAUUGAGCAUCA
B4: 30261907_30262514_1480_CDS_ENSMUSG00000026853_ENSMUST00000028207|mouse|control|control (ssRNA)
RNA: GGGAGUUCUACAGUCCGACGAUCCACAAGUGCAACUAUGGGGGGCCCUUCUGCAGCUGCAUGCUCAUACACCAUCCCACAGGAGCCGUCUUCUGCCACGAUGAACUGCAGUGUCUUGUCAAACCAGCGGUUGCCACUGUUGAACAACAGAGGAUUGAGCAUCA
B5: chr14:78183846:78183847:+_ENSG00000119705_ENST00000557342|hu_hu|hu_hu_hu_mus_False|48_98 (ssRNA)
RNA: GGGAGUUCUACAGUCCGACGAUCUCUCAGAAAUCUUUCUUUCUUUUAUGUUUGAGCUCCGUGCAAAGCCUUUGCUCUUUGAGCUUGAACCUGGACCUAUGGGAGGGAAAGCACUGUCAGAAAAGGUAAUUUUUUUUUUAAAGACAACAGAGGAUUGAGCAUCA
B6: chr20:20006332:20006333:+_ENSG00000173418_ENST00000334982|hu_hu|FALSE|FALSE (ssRNA)
RNA: GGGAGUUCUACAGUCCGACGAUCAGGUGCCUCUGCAACAAUGAAAUACUCUGGCCAGUGGGCGAGGUAUUGUAGGUAGAAAGGAAUCCCAUAAGUUUCUGUAAGUGGAUCCAAGUUAAUGUUGUUGAAGCGGAACAGGUCGUCCAACAGAGGAUUGAGCAUCA
B7: chr2:48026839:48026840:+_ENSG00000116062_ENST00000540021|hu_hu|hu_hu_hu_mus_False|28_48 (ssRNA)
RNA: GGGAGUUCUACAGUCCGACGAUCAUAGUGAGCCACUAGCGUCCUAAAUCUGGAACAGUGGCGGUCAUCCGAAAACUGGCCGAUGAAAAACUUUCCCAGUGAAGUGUCAACAAAGCAAACACCAUACACACGAGUGUGACCAGACAACAGAGGAUUGAGCAUCA
B8: 119198781_119198901_4864_CDS_ENSMUSG00000018076_ENSMUST00000100816|mouse|control|control (ssRNA)
RNA: GGGAGUUCUACAGUCCGACGAUCGCUGCCCCCCGCACUGGGGUUCUGCCCUCCAACACCACCACCGAAUCCUGAAGAAGAGGUAGUGUUCAUCUGAGUGAUGCCUGGAGCAGAGGCAGCUGAGGAGCCUGGCGGCCCAGAGGACAACAGAGGAUUGAGCAUCA
B9: chr8:80578333:80578334:+_ENSG00000104435_ENST00000220876|hu_hu|motif|central (ssRNA)
RNA: GGGAGUUCUACAGUCCGACGAUCAACUCCAAUUCUUUAUUAAUCACAGCUUGCUCACAAUGACAUACAGGAAAAUAGCACGGAUGAAGAGUAAAUAUGCAGGCAGCAACCUUCAGGAGUUGGGAGUUGGGGAGAAACGACUUCCAACAGAGGAUUGAGCAUCA
B10: chr7:6639541:6639542:+_ENSG00000146576_ENST00000344417|hu_hu|motif|central (ssRNA)
RNA: GGGAGUUCUACAGUCCGACGAUCGGGUGCCUUCACGCACCAGCGGAUCAAUCCAACGAGCGGGGUGAGCUCUAAGAAUCCGGUUGGCAGAUUGGCCGCAAUCGGAGUAUUUAAAAAAGUGAUGAGAAUCAACCUUGGGUCCUCCAACAGAGGAUUGAGCAUCA
B11: chr2:117085994:117085995:+_ENSMUSG00000027349_ENSMUST00000028825|mus_hu|FALSE|FALSE (ssRNA)
RNA: GGGAGUUCUACAGUCCGACGAUCUGACUUGGGUAUACCAAGUGUAUCAAACAUAGCUUGAACUUCCUGAUAAACUUCACUAUUUUUAUCUAAUUGAGAAUUUUUAUGUUUCUUGUUCUGUAAUAUCUGUGAAGCUUGAAGUUCCAACAGAGGAUUGAGCAUCA
B12: chr19:8913615:8913616:-_ENSMUSG00000071658_ENSMUST00000096259|mus_hu|mus_mus_mus_hu_False|68_98 (ssRNA)
RNA: GGGAGUUCUACAGUCCGACGAUCAGGGUACCAAAACACCCUGCCUCAAAUGGGUGCCCCACCCAGUCAGGACUUGGAGCUGAAAGUAUCUGAUGCAGAAGCAGUGACUAUACGAAAGGAGGCCCCUGGGGAGGGCCAGGCCAGCAACAGAGGAUUGAGCAUCA
B13: chr1:46073211:46073212:+_ENSG00000132780_ENST00000537798|hu_mus|FALSE|FALSE (ssRNA)
RNA: GGGAGUUCUACAGUCCGACGAUCAGAAGCGACCUCAUCUUCAUUCAGUCCUGGUAUUGCUGCUUCUUUUGCCUCUUCAGAGGAUUCAGUUAACUGCUUUGAAGUCGGUUCAACUGUUUCCUGGAGCUUCUCUUCAGGCUCACUCAACAGAGGAUUGAGCAUCA
B14: chr12:109547708:109547709:+_ENSG00000076248_ENST00000242576|hu_hu|FALSE|FALSE (ssRNA)
RNA: GGGAGUUCUACAGUCCGACGAUCAGACUUCUGCAGCAGCUCAUUGGUCUUUGAAAAGUGUCUACAUCCAAAGAACCCUCUAUACACUGACAAAGGGGAGGGAUGAGCCGUCUGUAGUACAUGGUGCCGCUUCCUAUCAAUGGCCAACAGAGGAUUGAGCAUCA

Target: T1, UNK ZnF1-3
Assay: nsRBNS (natural sequence RNA bind-n-seq); RBNS binding buffer (assumed for nsRBNS): 25 mM Tris pH 7.5, 150 mM KCl, 3 mM MgCl2, 0.01% Triton X-100, 500 ug/ml BSA, 20 U/ml SUPERase-In, 4 C; UNK is unkempt and MSI1 is Musashi-1; names of the RNAs are library labels; protein concentration not given here; high values mean tight binding

Which binding signal does the source give for B1 here?
The binding signal was 0.975 enrichment R.

With B2 as the binder, how does the binding signal read?
Its binding signal is 1.65 enrichment R.

With B3 as the binder, how does the binding signal read?
Its binding signal is 1.24 enrichment R.

B4 was tested. Which binding signal did it give?
Its binding signal is 0.431 enrichment R.

Which binding signal does the source give for B5 here?
The binding signal was 1.1 enrichment R.

Which binding signal does the source give for B6 here?
Its binding signal is 1.25 enrichment R.

For B7, which binding signal is on record?
Its binding signal is 1.33 enrichment R.

How did the binding signal turn out when B8 was run?
Its binding signal is 0.879 enrichment R.

B9 was tested. Which binding signal did it give?
Its binding signal is 1.9 enrichment R.

How did the binding signal turn out when B10 was run?
Its binding signal is 1.76 enrichment R.

B11 was tested. Which binding signal did it give?
The binding signal was 0.227 enrichment R.

B12 was tested. Which binding signal did it give?
Its binding signal is 1.64 enrichment R.

For B13, which binding signal is on record?
The binding signal was 0.545 enrichment R.

How did the binding signal turn out when B14 was run?
The binding signal was 1.59 enrichment R.
